Screen size: about 150,000 compounds; about 540 (0.36%) showed an effect of 50% or more. The list shows a part of the results.

We go through 41 molecules from ChEMBL document CHEMBL4888484, “Replenishing the malaria drug discovery pipeline: Screening and hit evaluation of the MMV Hit Generation Library 1 (HGL1) against asexual blood stage Plasmodium falciparum ,using a nano luciferase reporter read-out” (2022).

The test concerns Plasmodium falciparum. The test is described as follows: Primary screen in NF54 nanoGlo assay, in single point, at 2uM, 72h; a lower Z score goes with more inhibition. The format is functional, Erythrocyte. Particulars: timepoint 72 hour.
Regarding `CN(C)[C@@H](CNC(=O)c1cccs1)C1CC1`, the “% Inhibition” value is -15% and the Z score was 1.65.

Turning to `Cc1cc(C)cc(NC(=O)CC2=Nc3ccccc3S(=O)(=O)N2)c1`, the “% Inhibition” value was -14% and the Z score amounted to 1.65.

For `Cc1ccccc1-n1ncc2c1CC(C)(C)C[C@@H]2NC1CCN(C(C)C)CC1`, the “% Inhibition” value was 13% and the Z score is -2.06.

Turning to `CC(C)CCOc1ccc(C(=O)Nc2cc(S(=O)(=O)N3CCOCC3)ccc2N2CCOCC2)cc1`, the “% Inhibition” value stood at 6% and the Z score is listed as -1.04.

On to `CN(Cc1cc2n(n1)CCCNC2)Cc1nc(-c2ccccc2)cs1`, for which the “% Inhibition” value is given as -12% and the Z score is on record as 1.6.

With `Cc1cc(C)n2ncc(CN3CCN(c4ccnc5nncn45)CC3)c2n1`, the “% Inhibition” value was -4% and the Z score is recorded as 0.55.

On to `O=C(O)c1cn(C[C@H]2CCCN(C/C=C/c3ccco3)C2)nn1`, for which the “% Inhibition” value was -19% and the Z score is given as 4.07.

On to `C[C@@H](Cc1cccs1)NS(=O)(=O)c1cccc2c1N=S=N2`, for which the “% Inhibition” value is listed as -4% and the Z score worked out at 0.72.

Regarding `CC1(C)C[C@@H]1CNC(=O)N1CCN(CCc2ccccc2)C(=O)C1`, the “% Inhibition” value is given as 6% and the Z score is -0.97.

For the molecule `Cc1ccc(C(=O)Nc2nccnc2C(=O)N2CCN(c3ccc(F)cc3)CC2)cc1`, the “% Inhibition” value is recorded as -6% and the Z score is on record as 0.87.

As for `CC(NC(=O)N(C)CC1CCCO1)c1ccc(N2CCOCC2)cc1` (configuration not stated), the “% Inhibition” value is given as -3% and the Z score was determined as 0.42.

Consider `Cc1c(C2=CCN(S(=O)(=O)c3ccc(C(C)C)cc3)CC2)c2ccccc2n1Cc1ccc(F)cc1`, for which the “% Inhibition” value came to 13% and the Z score is -1.73.

Regarding `Clc1cccc(N2CCN(Cn3c(COc4ccccc4)nc4ccccc43)CC2)c1`, the “% Inhibition” value is given as -7% and the Z score worked out at 1.07.

`O=S(=O)(c1cccnc1)N1CC[C@H](Oc2ncc(Cl)cn2)C1`: the “% Inhibition” value stood at 4% and the Z score is listed as -0.65.

For the molecule `Cc1ccccc1CNC(=O)CCCc1nnc(C(=O)Nc2cccc(F)c2)s1`, the “% Inhibition” value is -4% and the Z score amounted to 0.84.

For `COc1cccc(NC(=O)Cn2cnc3c(-c4ccccc4)nsc3c2=O)c1`, the “% Inhibition” value was 3% and the Z score was -0.53.

For `C[C@H](OC(=O)c1cnns1)c1ccccc1Cl`, the “% Inhibition” value is on record as 4% and the Z score is reported as -0.69.

For `COc1cc(C)cc(NC(=O)N2CCC[C@@H]2c2csc(C)n2)c1C`, the “% Inhibition” value is on record as -5% and the Z score amounted to 0.58.

On to `CN(C)C1(CNC(=O)CCc2ccc(F)cc2)CCCC1`, for which the “% Inhibition” value is -1% and the Z score came out at 0.2.

With `O=C1CCCN1CCCC(=O)N1CCC2(CCCCCC2)C1`, the “% Inhibition” value was -12% and the Z score turned out to be 1.73.

In the case of `CCOc1ccc(N(C)Cc2nc3ncc(Br)cc3[nH]2)cc1`, the “% Inhibition” value was -8% and the Z score is 0.99.

Consider `CC(C)C[C@H]1COCCN1C(=O)NCc1cccc(C(F)(F)F)n1`, for which the “% Inhibition” value worked out at 5% and the Z score was -0.64.

Turning to `COc1cc([C@@H]2CC(=O)Nc3ccc4nsnc4c32)ccc1O`, the “% Inhibition” value was -6% and the Z score is 0.9.

Take `CCC(CC)C(=O)Nc1ccc(Oc2c(C)c(C(=O)O)nn2C)c(S(=O)(=O)N[C@@H](C)CC)c1`: the “% Inhibition” value is on record as 3% and the Z score is reported as -0.4.

Turning to `CCC#CCN1CCC(CNC(=O)c2cccc(C)n2)CC1`, the “% Inhibition” value came out at 2% and the Z score is given as -0.33.

As for `CC[C@@](C)(CC(=O)O)NC(=O)c1cc(C)ccc1F`, the “% Inhibition” value is reported as -9% and the Z score amounted to 1.16.

As to `CNC(=O)c1ccc(Cn2ncc(N(C)C)cc2=O)cc1`, the “% Inhibition” value is -4% and the Z score was found to be 0.69.

For `Cc1cccc(CN2CC=C(c3noc(CCC(=O)N4CCC(N5CCCCC5)CC4)n3)CC2)c1`, the “% Inhibition” value was -2% and the Z score worked out at 0.25.

As for `Cc1ccc(=O)n(CCNC(=O)c2cncc(Br)c2)n1`, the “% Inhibition” value was -17% and the Z score is listed as 3.06.

Regarding `O=C(NCc1ncc[nH]1)c1cc(COc2c(F)cccc2F)on1`, the “% Inhibition” value was -9% and the Z score was 1.9.

In the case of `COc1ccc(CCC(=O)N2CCCN(c3ccc4nnc(C)n4n3)CC2)cc1`, the “% Inhibition” value is reported as -6% and the Z score worked out at 0.64.

With `CCCCN1CCN(C(=O)c2oc3c(Cl)cc(C)cc3c2C)CC1=O`, the “% Inhibition” value is on record as -16% and the Z score was 2.98.

In the case of `CCCN(Cc1c(CC)nn(-c2ccc(F)cc2)c1N1CCN(C(C)C)CC1)C(=O)COCc1ccccc1`, the “% Inhibition” value is given as -14% and the Z score is given as 1.88.

`Cc1nnc2n1C[C@@H](CNc1nc(C3CCOCC3)ns1)CC2`: the “% Inhibition” value is on record as -10% and the Z score is recorded as 1.34.

In the case of `COc1ccc(/C=C/c2ccc3c(c2)C(=O)N2C[C@@H](NC(=O)CC(C)(C)CC(=O)O)C[C@H]2C(=O)N3)cc1`, the “% Inhibition” value was -10% and the Z score is 1.58.

As for `Cc1ccc(C)c([C@@H]2CCCN2S(=O)(=O)CCc2scnc2C)c1`, the “% Inhibition” value is 2% and the Z score is recorded as -0.23.

Turning to `CN(C)Cc1ccc(C(=O)Nc2ccnn2[C@H]2CCOC2)cn1`, the “% Inhibition” value came to 1% and the Z score is -0.19.

Consider `O=C(NCCc1cc(F)ccc1F)N1CCN2CCOC[C@@H]2C1`, for which the “% Inhibition” value is -7% and the Z score was 1.11.

Consider `CC(C)(C(=O)Cn1cc(S(C)(=O)=O)ccc1=O)c1ccccc1`, for which the “% Inhibition” value is reported as -11% and the Z score came to 1.57.

`Cc1ccnn1CC(=O)N1C[C@H]2CC[C@@H](C1)N(Cc1cscn1)C2=O`: the “% Inhibition” value is given as 4% and the Z score is listed as -0.5.

In the case of `Cc1ccccc1OC[C@H](O)C(=O)NCCN(C)S(C)(=O)=O`, the “% Inhibition” value is listed as -9% and the Z score was 0.87.
